What is called pIC50 is the negative decadic logarithm of the IC50, by convention in mol/L.

pIC50: −log10 of the molar value.

UniProt O14744, sequence (O14744 whole entry): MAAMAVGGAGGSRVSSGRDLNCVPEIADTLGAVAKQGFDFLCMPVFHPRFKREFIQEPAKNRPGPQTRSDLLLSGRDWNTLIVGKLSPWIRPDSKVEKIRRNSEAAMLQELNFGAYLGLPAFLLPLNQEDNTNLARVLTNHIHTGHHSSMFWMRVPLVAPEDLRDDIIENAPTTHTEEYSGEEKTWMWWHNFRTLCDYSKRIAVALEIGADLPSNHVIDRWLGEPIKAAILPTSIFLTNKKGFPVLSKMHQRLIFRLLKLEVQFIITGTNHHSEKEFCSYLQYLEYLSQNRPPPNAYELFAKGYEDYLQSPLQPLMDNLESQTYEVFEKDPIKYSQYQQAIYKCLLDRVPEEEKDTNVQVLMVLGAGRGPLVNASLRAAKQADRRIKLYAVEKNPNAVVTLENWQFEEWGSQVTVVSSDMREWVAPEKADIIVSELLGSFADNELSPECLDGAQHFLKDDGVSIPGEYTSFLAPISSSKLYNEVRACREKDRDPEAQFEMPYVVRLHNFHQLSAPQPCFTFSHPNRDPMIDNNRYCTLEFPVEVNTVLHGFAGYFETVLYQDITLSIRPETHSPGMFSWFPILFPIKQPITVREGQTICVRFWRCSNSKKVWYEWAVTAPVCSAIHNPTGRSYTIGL
UniProt O14744, sequence (Q9BQA1 whole entry partner): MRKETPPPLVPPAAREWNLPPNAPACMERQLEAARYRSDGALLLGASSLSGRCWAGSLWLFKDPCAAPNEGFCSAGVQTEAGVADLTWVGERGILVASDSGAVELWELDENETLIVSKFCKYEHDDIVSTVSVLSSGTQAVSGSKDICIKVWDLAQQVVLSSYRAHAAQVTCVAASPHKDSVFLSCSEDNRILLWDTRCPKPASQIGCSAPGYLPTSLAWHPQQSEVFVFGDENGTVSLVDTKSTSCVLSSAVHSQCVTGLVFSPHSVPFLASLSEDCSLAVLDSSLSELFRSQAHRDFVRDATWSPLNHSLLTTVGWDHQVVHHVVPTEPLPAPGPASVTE

For the experiment, the target named is PRMT5/MEP50 Complex (Homo sapiens (Human), UniProt O14744). As to the kind of experiment: PRMT5 inhibition based on TR-FRET assay. It counts as biochemical. The following applies: 32 nM PRMT5:MEP50, 50 nM Histone-H4 peptide, 1 μM SAM. The text has this: PRMT5 Inhibition Based on TR-FRET Assay:
Protein arginine methyltransferase 5 (PRMT5) is a type II arginine methyltransferase that catalyze mono- and symmetric demethylation on arginine residues of histone or non-histone proteins in presence of S-adenosylmethionine (AdoMet or SAM) a cofactor responsible for donating the methyl group. PRMT5 is reported to be overexpressed in several human cancers. To identify compounds that inhibit the PRMT5 and decrease its activity, a TR-FRET based assay has been established. Time-resolved fluorescence resonance energy transfer (TR-FRET) HTS assays are homogeneous proximity assays where the interaction of two dye-labeled binding partners is detected by the energy transfer between a donor and an acceptor dye and the subsequent light emission by the acceptor dye. PRMT5 catalyzes Histone H4 peptide which is biotin tagged to the Lysine amino acid at carboxyl end, in presence of S-adenosyl-1-methionine (SAM) to methylate the peptide. The antibody specific to mono methylated H4 peptide (H4R3) with Ig conjugate binds to the methylated peptide, indirectly binding to the Europium lanthanide. SureLight Allophycocyanin-Streptavidin binds to the biotin tag of the peptide, therefore accepting the energy transferred from the Europium lanthanide. This energy transfer between Europium to SureLight Allophycocyanin is a direct measure of the activity/inhibition of the PRMT5 enzyme.
Assay buffer: 20 mM BICINE (pH 7.6), 25 mM NaCl, 2 mM DTT, 0.01% Tween-20 and 0.01% BSA.
The compound dilutions were prepared as 7.5% DMSO stock solutions in assay buffer. To 2 μL (7.5×) of test compound, 5 μL of PRMT5 enzyme prepared in assay buffer (Final concentration of 32 nM in 15 μL reaction volume) was added and allowed for 30 minutes pre-incubation time in a white polystyrene 384-well plate at room temperature. […] The plates were then read on Victor-3 with Excitation at 340 nm and Emissions collected at 615 and 665 nm in TR-FRET protocol. […]
On the technique in general: Time-resolved FRET reads energy transfer from a long-lived donor to a nearby acceptor.
As for `Cn1cnc2ccc(Cn3c(=O)n(CC(O)CN4CCc5ccccc5C4)c4ccccc43)cc21` (racemic) [Example 84, 1-(3-(3,4-Dihydroisoquinolin-2(1H)-yl)-2-hydroxypropyl)-3-((1-methyl-H-benzo[d]imidazol-6-yl)methyl)-1,3-dihydro-2H-benzo[d]imidazol-2-one], the pIC50 was 7.15.
Compound `N#Cc1ccc(Cn2ccn(CC(O)CN3CCc4ccccc4C3)c2=O)cc1` (single isomer, unassigned) [Example 82a, 4-((3-(3-(3,4-dihydroisoquinolin-2(1H)-yl)-2-hydroxypropyl)-2-oxo-2,3-dihydro-1H-imidazol-1-yl)methyl)benzonitrile] showed a pIC50 of 6.11.
Compound `Cn1cnc2ccc(Cn3c(=O)n(CC(O)CN4CCc5ccccc5C4)c4ccccc43)cc21` (single isomer, unassigned) [Example 84a, 1-(3-(3,4-Dihydroisoquinolin-2(1H)-yl)-2-hydroxypropyl)-3-((1-methyl-1H-benzo[d]imidazol-6-yl)methyl)-1,3-dihydro-2H-benzo[d]imidazol-2-one] showed a negative logarithm of the IC50 (pIC50) of 8.00. Compared with the last compound, the pIC50 is 1.89 log units higher.

Values taken from US11365205B2 (Aurigene Discovery Technologies Limited, priority 2018, dated 2022).
